The values that follow come from paper PMC9236144 (Molecular Biology of the Cell, 2022).

In this assay the target is T1, Bud6C (Bud6 residues 550-789) (S. cerevisiae, UniProt P41697 550-788).
T1 sequence (looked up): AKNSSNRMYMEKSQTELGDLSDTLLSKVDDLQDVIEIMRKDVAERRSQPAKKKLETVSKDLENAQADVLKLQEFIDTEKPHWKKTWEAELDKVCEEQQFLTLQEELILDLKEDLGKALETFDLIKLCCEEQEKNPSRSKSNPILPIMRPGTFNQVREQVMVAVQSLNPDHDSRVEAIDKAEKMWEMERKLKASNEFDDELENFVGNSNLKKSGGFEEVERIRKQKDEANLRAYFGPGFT
Kind of assay: fluorescence polarisation.

B1: Bnr1-LC (Bnr1 […], with the αT helix), Alexa 488-labeled (domain or fragment)
chain: not shown
modifications: Alexa 488 label (site not stated)
In the case of B1, the binding result was “binds”.
